The values below come from the supplement of paper PMC10126150.

Sequences with one replicate were seen in a single cluster, so their values are uncertain.

This data set relates to ATP. As to the kind of experiment: switch fluorescence ratio, 500 uM ATP over buffer (Cy3 cluster intensity, sum of 5 cycles each) (fold (ratio)); higher = stronger signal-on switching upon ATP binding; sequences stand for … in TCGTCGGCAGCGTCAGATGTGTATAAGAGACAGTTTTTTTTTTTTTTTTTTTTTTTTT…TC. To be noted: aptamer strand: ATP DNA aptamer (quencher-CACCTGGGGGAGTATTGCGGAGGAAGG + anchor), 100 nM annealed; ATP concentration: 500 uM; one replicate. In a few lines:
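Exposure to 500 uM ATP lasted 15 min at 22 °C before imaging, and a selection-buffer image was taken beforehand, for Cy3-labelled switching-strand clusters on a modified Illumina MiSeq flow-cell annealed to 100 nM quencher-labelled ATP aptamer. Five buffer/ATP cycles were run with NaOH stripping and re-annealing between them. The fluorescence ratio per cluster is summed target-cycle over summed buffer-cycle Cy3 intensity, averaged per switch-domain sequence. Clusters outside 100-1000 RFU were excluded.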

With TAAACTTAAC, the switch fluorescence ratio came to 1.1.
For the sequence TTTCTGCCCA, the switch fluorescence ratio was determined as 1.02.
As for CTAGGAGTTA, the switch fluorescence ratio was determined as 0.999.
For the sequence ATTGTCATCG, the switch fluorescence ratio was found to be 0.966.
For CGCTTATT, the switch fluorescence ratio was found to be 1.04.
On to ACAAGAAGGT, for which the switch fluorescence ratio stood at 1.01.
Turning to GCTATATTTA, the switch fluorescence ratio turned out to be 1.04.
Turning to ACGTTCTCTG, the switch fluorescence ratio worked out at 1.02.
The value for TGCATGGTAA was 0.987; that for TCGATATTC was 1.04; that for GAGCCCTGCC was 1.05.
With TTGCAGGGGC, the switch fluorescence ratio was determined as 1.04.
With CGCGAGGACG, the switch fluorescence ratio is 0.993.
CAGAACCCTG: the switch fluorescence ratio was found to be 1.03.
The value for ATGGGCGATC was 1.03; that for ATGCTCTCGA was 1.01.
Regarding CGGGCTGTCA, the switch fluorescence ratio was 0.929.
As for AAATCTACGT, the switch fluorescence ratio came to 1.03.
TATGGAGGAC: the switch fluorescence ratio came to 0.967.
For GGTGAATTGC, the switch fluorescence ratio worked out at 0.974.
In the case of GCGCCGAAAC, the switch fluorescence ratio came out at 1.07.
As for TAAAACTCAT, the switch fluorescence ratio is 1.03.
Consider ATAATCGGGG, for which the switch fluorescence ratio is 0.981.
On to TCCCCAACTT, for which the switch fluorescence ratio is 1.02.
With GGTGCGATGA, the switch fluorescence ratio worked out at 1.02.
Regarding GATCCCGGTA, the switch fluorescence ratio was found to be 1.04.
The figure for GTGGGCCGAC is 0.946; for TTGATCGTG it is 0.947; for CATGTTACGC it is 1.06.
For TATTCACAAT, the switch fluorescence ratio was determined as 1.02.
Take ATATTCTGAG: the switch fluorescence ratio was 0.965.
For AACATGATGT, the switch fluorescence ratio came to 0.964.
Consider GAGTAGCGGG, for which the switch fluorescence ratio is 0.981.
TTCGGTCGAA: the switch fluorescence ratio was determined as 0.952.
Turning to ATGAGAATAC, the switch fluorescence ratio was 1.11.
On to GGCGGTTAAA, for which the switch fluorescence ratio amounted to 1.01.
The figure for GTCAGCATCG is 1.05; for CTGAAGGGTC it is 0.969; for CGGCTGGGAC it is 1.08.
The value for AAAGAAATAG was 0.993; that for TCAATAGCCA was 0.997; that for TTCATGGTCG was 1.
As for AGTCACTTAC, the switch fluorescence ratio stood at 1.37.
With CGACAGCATT, the switch fluorescence ratio was determined as 3.22.
Take ATTACGGTGC: the switch fluorescence ratio worked out at 1.14.
The value for GAGGTACATG was 1.01; that for TAAGGATGAA was 0.975; that for TTAAGGAAGA was 1.08.
As for TGCTTCTGGC, the switch fluorescence ratio was determined as 0.986.
As to CAGTCTACTA, the switch fluorescence ratio was found to be 1.05.
With GGTCACTCAC, the switch fluorescence ratio stood at 1.2.
Consider AAGTCACCTC, for which the switch fluorescence ratio was determined as 1.08.
Consider TGTACTAAGA, for which the switch fluorescence ratio was found to be 1.
For GTGTCATGTG, the switch fluorescence ratio stood at 0.976.
With AGTCAGGCTG, the switch fluorescence ratio came to 0.98.
Take AGACTTGATG: the switch fluorescence ratio was found to be 0.945.
Take CGGCAACAGT: the switch fluorescence ratio was 1.12.
With TGGTTGTGCC, the switch fluorescence ratio is 1.03.
In the case of CTATATAGAC, the switch fluorescence ratio was 1.
In the case of TCGGCTAGAG, the switch fluorescence ratio worked out at 1.05.
Turning to GACAAAGTAC, the switch fluorescence ratio was 4.08.
The figure for GTTGGGCCCG is 0.996.
The value for TGCGGCGGAT was 0.991; that for GTTCGTTGGG was 0.982; that for TCGCACCGTG was 1.13.
With AAGTTACGAA, the switch fluorescence ratio is 1.08.
With TTAAAGAGTT, the switch fluorescence ratio is 0.989.
